In the supplement of paper PMC4604168 (melanoma cell lines):
Some of the results follow. Most values come without repeats; read them as rough.

Each molecule was assayed on COLO792 (assay: cell count relative to DMSO control; melanoma cells; higher = more viable cells). Conditions: library dose: standard library concentration; 72 h.
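Note: cells treated in 1,536-well plates, then fixed and DAPI-stained, with nuclei counted from automated high-throughput microscope images.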

SMILES	cell count
Cc1cc(Nc2cc(N3CCN(C)CC3)nc(/C=C/c3ccccc3)n2)n[nH]1 + Cc1cc([N+](=O)[O-])ccc1NS(=O)(=O)c1cc(Cl)ccc1Cl [FH535] (first compound 0.2 µM, partner dose 5 µM)	68.7%
Cc1cn(-c2cc(NC(=O)c3ccc(C)c(Nc4nccc(-c5cccnc5)n4)c3)cc(C(F)(F)F)c2)cn1 [nilotinib] + COc1cc(N2CCC(N3CCN(C)CC3)CC2)ccc1Nc1ncc(Cl)c(Nc2ccccc2S(=O)(=O)C(C)C)n1 [NVP-TAE684] (first compound 1 µM, partner dose 0.4 µM)	86.7%
CC(C)C[C@H](NC(=O)[C@H](Cc1ccccc1)NC(=O)c1cnccn1)B(O)O [Bortezomib] + O=C(O)C(=O)Nc1sc2c(c1C(=O)O)CCNC2 [TCS401] (first compound 0.005 µM, partner dose 8.33333 µM)	61.8%
CC(C)C[C@H](NC(=O)[C@H](Cc1ccccc1)NC(=O)c1cnccn1)B(O)O [Bortezomib] + CC(C)CCN1c2nc(Nc3cc(F)c(O)c(F)c3)ncc2N(C)C(=O)C1C [BID1870] (first compound 0.005 µM, partner dose 1 µM)	40.7%
Cc1cn(-c2cc(NC(=O)c3ccc(C)c(Nc4nccc(-c5cccnc5)n4)c3)cc(C(F)(F)F)c2)cn1 [nilotinib] + NC(=O)c1ccc(N(C(N)=O)c2c(F)cccc2F)nc1-c1ccc(F)cc1F [VX702] (first compound 1 µM, partner dose 2 µM)	96.2%
CC(C)C[C@H](NC(=O)[C@H](Cc1ccccc1)NC(=O)c1cnccn1)B(O)O [Bortezomib] + O=C(Nc1ccccc1)c1cc([N+](=O)[O-])ccc1Cl [GW9662] (first compound 0.005 µM, partner dose 10 µM)	39.2%
Cc1cn(-c2cc(NC(=O)c3ccc(C)c(Nc4nccc(-c5cccnc5)n4)c3)cc(C(F)(F)F)c2)cn1 [nilotinib] + Cn1c(=O)n(-c2ccc(C(C)(C)C#N)cc2)c2c3cc(-c4cnc5ccccc5c4)ccc3ncc21 [NVP-BEZ235] (first compound 1 µM, partner dose 0.02 µM)	46.7%
Cc1cc(Nc2cc(N3CCN(C)CC3)nc(/C=C/c3ccccc3)n2)n[nH]1 + CS(=O)(=O)CCNCc1ccc(-c2ccc3ncnc(Nc4ccc(OCc5cccc(F)c5)c(Cl)c4)c3c2)o1 [lapatinib] (first compound 0.2 µM, partner dose 4 µM)	36.9%
COc1ccc(C2=N[C@@H](c3ccc(Cl)cc3)[C@@H](c3ccc(Cl)cc3)N2C(=O)N2CCNC(=O)C2)c(OC(C)C)c1 [Nutlin-3] + COc1ccc(Cl)c(Nc2nc3ccccc3nc2NS(=O)(=O)c2cccc(NC(=O)C(C)(C)N)c2)c1 [XL147] (first compound 0.5 µM, partner dose 4 µM)	75.1%
COc1ccc(C2=N[C@@H](c3ccc(Cl)cc3)[C@@H](c3ccc(Cl)cc3)N2C(=O)N2CCNC(=O)C2)c(OC(C)C)c1 [Nutlin-3] + CN(c1ncccc1CNc1nc(Nc2ccc3c(c2)CC(=O)N3)ncc1C(F)(F)F)S(C)(=O)=O [PF562271] (first compound 0.5 µM, partner dose 0.4 µM)	79.8%
Cc1cc(Nc2cc(N3CCN(C)CC3)nc(/C=C/c3ccccc3)n2)n[nH]1 + COC(=O)c1sccc1S(=O)(=O)Nc1ccc(Nc2ccccc2)cc1OC [GSK0660] (first compound 0.2 µM, partner dose 5 µM)	102%
Cn1c(=O)n(-c2ccc(C(C)(C)C#N)cc2)c2c3cc(-c4cnc5ccccc5c4)ccc3ncc21 + COc1cc(N2CCC(N3CCN(C)CC3)CC2)ccc1Nc1ncc(Cl)c(Nc2ccccc2S(=O)(=O)C(C)C)n1 [NVP-TAE684] (first compound 0.02 µM, partner dose 0.4 µM)	46.5%
COc1ccc(C2=N[C@@H](c3ccc(Cl)cc3)[C@@H](c3ccc(Cl)cc3)N2C(=O)N2CCNC(=O)C2)c(OC(C)C)c1 [Nutlin-3] + O=C(CCCCCCC(=O)Nc1ccccc1)NO [vorinostat] (first compound 0.5 µM, partner dose 0.4 µM)	75.6%

What follows are molecules tested on COLO800 in the same assay as above. Conditions: library dose: standard library concentration; 72 h.

SMILES	cell count
COc1ccc(C2=N[C@@H](c3ccc(Cl)cc3)[C@@H](c3ccc(Cl)cc3)N2C(=O)N2CCNC(=O)C2)c(OC(C)C)c1 [Nutlin-3] + Nc1nc(F)nc2c1ncn2[C@@H]1O[C@H](CO)[C@@H](O)[C@@H]1O [fludarabine] (first compound 0.5 µM, partner dose 1 µM)	111%
Cn1c(=O)n(-c2ccc(C(C)(C)C#N)cc2)c2c3cc(-c4cnc5ccccc5c4)ccc3ncc21 + COc1ccc2c(c1)CCC1C2CCC2(C)C(NCCCCCCN3C(=O)C=CC3=O)CCC12 [U73122] (first compound 0.02 µM, partner dose 2 µM)	112%
CC(C)C[C@H](NC(=O)[C@H](Cc1ccccc1)NC(=O)c1cnccn1)B(O)O [Bortezomib] + CC(=O)c1c(C)c2cnc(Nc3ccc(N4CCNCC4)cn3)nc2n(C2CCCC2)c1=O [palbociclib] (first compound 0.005 µM, partner dose 0.2 µM)	103%
Cn1c(=O)n(-c2ccc(C(C)(C)C#N)cc2)c2c3cc(-c4cnc5ccccc5c4)ccc3ncc21 + Cn1cncc1[C@@](N)(c1ccc(Cl)cc1)c1ccc2c(c1)c(-c1cccc(Cl)c1)cc(=O)n2C [tipifarnib] (first compound 0.02 µM, partner dose 0.05 µM)	60%
Cc1cc(Nc2cc(N3CCN(C)CC3)nc(/C=C/c3ccccc3)n2)n[nH]1 + CCN(CC)CCCCNc1ncc2cc(-c3cc(OC)cc(OC)c3)c(NC(=O)NC(C)(C)C)nc2n1 [PD173074] (first compound 0.2 µM, partner dose 0.5 µM)	74.7%
Cc1cc(Nc2cc(N3CCN(C)CC3)nc(/C=C/c3ccccc3)n2)n[nH]1 + O=c1cc(-c2cccc3c2Sc2ccccc2S3)oc(N2CCOCC2)c1 [KU55933] (first compound 0.2 µM, partner dose 5 µM)	67.5%
COc1ccc(C2=N[C@@H](c3ccc(Cl)cc3)[C@@H](c3ccc(Cl)cc3)N2C(=O)N2CCNC(=O)C2)c(OC(C)C)c1 [Nutlin-3] + Cn1nnc2c(C(N)=O)ncn2c1=O [temozolomide] (first compound 0.5 µM, partner dose 10 µM)	77.2%
Cn1c(=O)n(-c2ccc(C(C)(C)C#N)cc2)c2c3cc(-c4cnc5ccccc5c4)ccc3ncc21 + Cn1cc(/C=C2\C(=O)Nc3cccnc32)c2ccccc21 [GW441756] (first compound 0.02 µM, partner dose 2 µM)	122%
Cc1cc(Nc2cc(N3CCN(C)CC3)nc(/C=C/c3ccccc3)n2)n[nH]1 + O=C(Nc1cccc(Cl)c1)Nc1ncc(CCNc2ncnc3ccsc23)s1 [SNS314] (first compound 0.2 µM, partner dose 0.004 µM)	39.8%
Cc1cn(-c2cc(NC(=O)c3ccc(C)c(Nc4nccc(-c5cccnc5)n4)c3)cc(C(F)(F)F)c2)cn1 [nilotinib] + C[C@@H](N)c1ccc(C(=O)Nc2ccnc3[nH]ccc23)cc1 [RKI983] (first compound 1 µM, partner dose 2 µM)	96.5%
Cc1cc(Nc2cc(N3CCN(C)CC3)nc(/C=C/c3ccccc3)n2)n[nH]1 + CN1CCN(c2ccc3nc(-c4c(N)c5c(F)cccc5[nH]c4=O)[nH]c3c2)CC1 [Dovitinib] (first compound 0.2 µM, partner dose 0.5 µM)	67.9%
Cc1cn(-c2cc(NC(=O)c3ccc(C)c(Nc4nccc(-c5cccnc5)n4)c3)cc(C(F)(F)F)c2)cn1 [nilotinib] + CCCCCCCCCCCC1=C(O)C(=O)C=C(O)C1=O [Embelin] (first compound 1 µM, partner dose 6 µM)	105%
COc1ccc(C2=N[C@@H](c3ccc(Cl)cc3)[C@@H](c3ccc(Cl)cc3)N2C(=O)N2CCNC(=O)C2)c(OC(C)C)c1 [Nutlin-3] + O=C(O)[C@@H]1[O][Sb](=[O])([O][Sb]2(=[O])[O][C@H]([C@H](O)CO)[C@H](O)[C@H](C(=O)O)[O]2)[O][C@H]([C@H](O)CO)[C@@H]1O [stibogluconate] (first compound 0.5 µM, partner dose 10 µM)	28.7%
CC(C)C[C@H](NC(=O)[C@H](Cc1ccccc1)NC(=O)c1cnccn1)B(O)O [Bortezomib] + C#Cc1cccc(Nc2ncnc3cc(OCCOC)c(OCCOC)cc23)c1 [erlotinib] (first compound 0.005 µM, partner dose 4 µM)	69.5%
Cn1c(=O)n(-c2ccc(C(C)(C)C#N)cc2)c2c3cc(-c4cnc5ccccc5c4)ccc3ncc21 + CN(C)S(=O)(=O)c1ccc2c(c1)/C(=C/c1cc3c([nH]1)CCCC3)C(=O)N2 [SU6656] (first compound 0.02 µM, partner dose 2 µM)	63.5%
Cn1c(=O)n(-c2ccc(C(C)(C)C#N)cc2)c2c3cc(-c4cnc5ccccc5c4)ccc3ncc21 + Nc1cccc2c1CN(C1CCC(=O)NC1=O)C2=O [lenalidomide] (first compound 0.02 µM, partner dose 5 µM)	99.9%
Cc1cn(-c2cc(NC(=O)c3ccc(C)c(Nc4nccc(-c5cccnc5)n4)c3)cc(C(F)(F)F)c2)cn1 [nilotinib] + C[C@]1(c2nc3c(C(N)=O)cccc3[nH]2)CCCN1 [Veliparib] (first compound 1 µM, partner dose 7 µM)	75.2%
